{"source": "PubChem BioAssay AID1508624", "about": "(National Center for Advancing Translational Sciences (NCATS), 2021)", "note": "Hit rate of the full screen: of about 48,000 compounds, about 120 (0.25%) were called active. Inconclusive results (about 4%) are left out. Calls follow the shape of the dose curve; as a rule, active = well fitted activation curve with a large enough effect; inconclusive = small, poorly fitted or top-dose-only effect, or another doubt; inactive = no such curve, though single readings can be large or run the other way. The list shows a part of the results."}
{"experiment": "Primary qHTS for Identification of Small Molecule Activators of Huntingtin-Antisense Promoter Activity; also: nearly all actives have a fitted effect of over 55% in size", "conditions": "HEK293 HTT-AS promoter firefly luciferase reporter, 24 h; series mostly up to 57.5 µM; activity change, positive = activation: at the top concentration", "procedure,_shortened": "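HEK293 luciferase promoter-reporter cells (2,500/well) plated 24 h, then compounds added at up to 57.5 uM final for 24 h at 37 °C. Firefly luminescence by Dual-Glo, normalized to vehicle (0%) and zero RLU (-100%).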"}
{"smiles": "CCCC(O)C(CC)CO", "note": "(configuration not stated)", "activity change, positive = activation": "inactive: 0.245%"}
{"smiles": "CN(C)CCNC(=O)c1ccc(-n2c(-c3ccccc3)cc3c2CCCC3)cc1", "activity change, positive = activation": "inactive: -4.12%"}
{"smiles": "COP(=O)(OC)OC(c1ccc(Cl)cc1)P(=O)(OC)OC", "note": "(configuration not stated)", "activity change, positive = activation": "inactive: -9.55%"}
{"smiles": "Cc1cc(C)cc(-n2nnc(-c3nc(-c4ccc5c(c4)OCO5)no3)c2C)c1", "activity change, positive = activation": "inactive: -2.04%"}
{"smiles": "Cc1ccc(S(=O)(=O)C(CNC(=O)C(=O)NCc2ccc(Cl)cc2)c2cccs2)cc1", "note": "(configuration not stated)", "activity change, positive = activation": "inactive: -40.6%"}
{"smiles": "COc1cc2c(=O)n(CCC(=O)NCC3CCCO3)c(=O)n(CC(=O)Nc3ccc(C)cc3)c2cc1OC", "note": "(configuration not stated)", "activity change, positive = activation": "inactive: 12.6%"}
{"smiles": "CCC(=O)N1c2ccc(S(=O)(=O)N3CCN(c4ccccc4)CC3)cc2CC1C", "note": "(configuration not stated)", "activity change, positive = activation": "inactive: -7.59%"}
{"smiles": "CC(=O)c1ccc(NC(=O)c2cn3c4c(ccc(Cl)c4c2=O)OC(C)C3)cc1", "note": "(configuration not stated)", "activity change, positive = activation": "inactive: -7.22%"}
{"smiles": "Cc1ccc(C(=O)NCCn2c(C)cc3ccccc32)cc1C", "activity change, positive = activation": "inactive: -41.3%"}
{"smiles": "Nc1ccc2c(c1)CN1C(=O)c3ccccc3C1=N2", "activity change, positive = activation": "inactive: -51.8% [at 25.1 µM, percent change from vehicle, -100% = no light]"}
{"smiles": "CC(Oc1ccc(F)cc1)C(=O)NCC1(N(C)C)CCCCC1", "note": "(configuration not stated)", "activity change, positive = activation": "inactive: -3.28%"}
{"smiles": "Cc1ccc(S(=O)(=O)c2cn(CC(=O)Nc3ccc(C)c(Cl)c3)c3ccc(C)cc3c2=O)cc1", "activity change, positive = activation": "inactive: -6.47%"}
{"smiles": "Cc1c(NC(=O)c2ccc(OC(C)C)cc2)cccc1-c1nc2ncccc2o1", "activity change, positive = activation": "inactive: -1.97%"}
{"smiles": "COc1cccc(C(=O)NCCSc2c(-c3ccc(F)cc3)[nH]c3ccccc23)c1OC", "activity change, positive = activation": "inactive: -55.3%"}
{"smiles": "O=C1CN(C(=O)c2ccc(S(=O)(=O)N3CCCCC3)cc2)C(c2ccc(F)cc2)c2cc(F)ccc2N1", "note": "(configuration not stated)", "activity change, positive = activation": "inactive: -17.3%"}
{"smiles": "Cc1ccc(CNC(=O)C2CCCN(S(=O)(=O)c3ccc4c(c3)oc(=O)n4C)C2)cc1", "note": "(configuration not stated)", "activity change, positive = activation": "inactive: -13.9%"}
{"smiles": "CCc1ccc(CNC(=O)CCSCc2ccccc2F)cc1", "activity change, positive = activation": "inactive: -2.78%"}
{"smiles": "Cc1cccc(NS(=O)(=O)c2ccc3[nH]c(=O)ccc3c2)c1C", "activity change, positive = activation": "inactive: -13.3%"}
{"smiles": "COc1ccccc1OCCn1c(-c2ccc(Cl)cc2)nc2ccccc2c1=O", "activity change, positive = activation": "inactive: -0.888%"}
{"smiles": "Cc1oc2ccc(O)c(CN(C)Cc3ccccc3)c2c1C(=O)Nc1cccc(C(F)(F)F)c1", "activity change, positive = activation": "inactive: -55.6%"}
{"smiles": "COc1ccc(C(=O)c2cn(CC(=O)Nc3ccc4c(c3)OCCO4)c3ccc(OC)cc3c2=O)cc1", "activity change, positive = activation": "inactive: -25.7%"}
{"smiles": "COc1cc(NC(=O)Cn2c(=O)oc3cc(S(=O)(=O)N4CCCCCC4)ccc32)cc(OC)c1", "activity change, positive = activation": "inactive: -34.4%"}
{"smiles": "O=C(CSc1nc(-c2ccccc2)no1)N1CCN(c2ccccc2F)CC1", "activity change, positive = activation": "inactive: -9.1%"}
{"smiles": "COc1cccc(C2=CC(c3ccc(OC)c(OC)c3OC)n3ncnc3N2)c1", "note": "(configuration not stated)", "activity change, positive = activation": "inactive: 3.1%"}
{"smiles": "CCN(C(=O)Cc1nc(-c2ccc(OC)cc2)no1)c1cccc(Cl)c1", "activity change, positive = activation": "inactive: -24.1%"}
{"smiles": "O=C(Cn1c(=O)nc(-c2ccccc2)c2ccccc21)Nc1ccc(Cl)c(C(F)(F)F)c1", "activity change, positive = activation": "inactive: -3.93%"}
{"smiles": "Cc1nc(-c2ccccc2)sc1-c1ccc(SCC(=O)NCc2ccc(F)cc2)nn1", "activity change, positive = activation": "inactive: -7.68%"}
{"smiles": "Cn1c(=O)c2c(SCC(=O)N3CCc4ccccc43)nc(-c3ccccc3Cl)nc2n(C)c1=O", "activity change, positive = activation": "inactive: -4.92%"}
{"smiles": "Cc1ccc(C(C)C)c(OCC(=O)Nc2cccc(NC(=O)c3ccco3)c2)c1", "activity change, positive = activation": "inactive: -46.8%"}
{"smiles": "Cc1ccc(-c2nc3cccnc3s2)cc1NC(=O)C(C)C", "activity change, positive = activation": "inactive: -1.08%"}
{"smiles": "Cc1ccc(-c2ccc(=O)n(Cc3cc(C)ccc3C)n2)cc1", "activity change, positive = activation": "inactive: -38.5%"}
{"smiles": "CC1=Nc2cc(C(=O)NCCc3ccc(Cl)cc3)ccc2Sc2ccc(C)cc21", "activity change, positive = activation": "inactive: -34.7%"}
{"smiles": "CCC(CC)C(=O)NC1CC(=O)N(c2ccc3c(c2)OCCO3)C1", "note": "(configuration not stated)", "activity change, positive = activation": "inactive: -17.9%"}
{"smiles": "Clc1ccc(-c2nc3sccn3c2C=NOCc2ccc(Cl)c(Cl)c2)cc1", "activity change, positive = activation": "inactive: -6.5%"}
{"smiles": "CCOc1ccc(-n2c(SCC(=O)N3CCCC3)nc3c([nH]c4ccccc43)c2=O)cc1", "activity change, positive = activation": "inactive: -10.7%"}
{"smiles": "COC(=O)C(Cc1c[nH]c2ccccc12)NC(=O)COc1ccc(Cl)cc1Cl", "note": "(configuration not stated)", "activity change, positive = activation": "inactive: -24.3%"}
{"smiles": "CCN(c1cc(C)cc(C)c1)S(=O)(=O)c1nnc(NC(=O)c2cccs2)s1", "activity change, positive = activation": "inactive: -20.7%"}
{"smiles": "CCOc1ccc(-n2c(CCC(=O)O)ccc2-c2ccc(Br)cc2)cc1", "activity change, positive = activation": "inactive: 13.3%"}
{"smiles": "CCc1ccc(NC(=O)C(=O)NCCc2csc(-c3ccc(C(F)(F)F)cc3)n2)cc1", "activity change, positive = activation": "inactive: 7.58%"}
{"smiles": "Cc1cc(C)c(NC(=O)Cn2c(=O)n(Cc3ccc4c(c3)OCO4)c(=O)c3ccc(C(=O)NC4CCCCC4)cc32)c(C)c1", "activity change, positive = activation": "inactive: -10.6%"}
{"smiles": "O=C(NCc1ccccc1F)c1ccc(CN2CC(=O)N3CCCCC3C2=O)cc1", "note": "(configuration not stated)", "activity change, positive = activation": "inactive: -7.74%"}
{"smiles": "COc1cccc(C(=O)N2c3cc(C)ccc3C(C)(c3ccccc3)CC2(C)C)c1", "note": "(configuration not stated)", "activity change, positive = activation": "inactive: -26.2%"}
{"smiles": "N#C/C(=C\\c1ccc(Cl)cc1)c1nc(-c2cc3ccccc3oc2=O)cs1", "activity change, positive = activation": "inactive: 2.88%"}
{"smiles": "CCOC(=O)c1sc2cccc(F)c2c1S(=O)(=O)N1CCN(c2cccc(Cl)c2)CC1", "activity change, positive = activation": "inactive: -28.1%"}
{"smiles": "CCCn1c2ccccc2c2cnn(CC(=O)N3CCC(C)CC3)c(=O)c21", "activity change, positive = activation": "inactive: -11.9%"}
{"smiles": "CCc1ccc(CNC(=O)c2cnc3sc4cc(OC)ccc4n3c2=O)cc1", "activity change, positive = activation": "inactive: -3.2%"}
{"smiles": "Cc1cccc(C)c1Nc1sc(C(=O)c2ccccc2)c(N)c1C(=O)Nc1ccc(F)cc1", "activity change, positive = activation": "inactive: -20.3%"}
